According to the supplement of paper PMC12632987:
Whole data set: some 4,500 sequences, median “median log2 fold change of GCK-ALFA target abundance (FLAG IP / Myc IP barcode read proportion)” near 0.078, cut for the lowest 2% near -0.6. This is one part of the list.

B1: GBRAP_125_2983 (protein)
chain: PTPAQLADLATFAKALGLDDAEAAEAAALAAAHSLKQTVYAILAALGEEELADLVAKLTEAEVAEVLAAVAAYLAAHPDATPEEVLARFRELAEAALAKR
B2: GBRAP_128_3541 (protein)
chain: SLEEAKEKAKKVMEEIKNSTPEEAAKITKEFLEELKTWSDEEVEAAVEVIEELLPELTAEKLEVVADTIEEERPKFSPEKQNLLAGVEVEALNLAEEQEE
B3: GBRAP_184_5349 (protein)
chain: TTRDVLIEADTVDEAIAKLRAAAAEARAAGATLNVLIDVPINTKEEAEKLMDEVAELAAEGIVAGTVGITNVSDDDEIIDILVDRADEAGVRLVLAIDEE
B4: GBRAP_35_5525 (protein)
chain: NSDRTAAEMLVNTIEDLTLAVPDMPVDTLVAATRALVRSARELVEDLKDDPEALARLREALAALLAAIRRHHADDPAAAAAAAEVAAVIAEVEEALAAAA
B5: GBRAP_186_5368 (protein)
chain: SEKAKKEEEEFIDEAADKGHIVIGTLVVKEFTEEAKKRIEDEIRAAAEFSKEFGYKVAIIIKLKGSEEEYEELKKFVEEKVEELKKETGAEVEVKIIHDK
B6: GBRAP_18_5400 (protein)
chain: APSPFERAWAALSEELQAAVAKAIGDALSSEDEEERIDILVDALVEFAARTSPEELEAAAYLLLHSVVSRMEEAEEVARRFIERVPEMKPQAEAVVERLK
B7: GBRAP_80_6853 (protein)
chain: AEARLEKALAELAAVLPEAKPLAEEIVKLAKELGVPDEVIADTLEALTELAKVDPEEAKELLEELLEELKELKEEGDSEGAKAVLQGYAGEALLEAEELE
B8: GBRAP_184_5279 (protein)
chain: TVIHVELEAESGEEAMAQIRAAAAAARAAGAQLDLTLLLEGASEEEIMAVFDLLKALRDEGVIRRAVLGVDLPDDEETIDRLIERADEAGVRLVIAIEEK
B9: GBRAP_35_5506 (protein)
chain: DSMSTIADMLVATIDDTVLAIPDLDVETAVQISRQLIRSAREVAEDLKDDPEGLKRLRDSMERLRDALVKHYGDNPLAQEAIKEIDELIKELEERIKEAE
B10: GBRAP_160_4767 (protein)
chain: KEELKKLLEEVKEIFDEAIEMLKESPASEAPTIIAGAMGDVIMEVESSPAVSDELEEKIAEIMDKAEEEAKKLANAPKEEHIKLLEEAREKITKLIEEEI
B11: GBRAP_80_6828 (protein)
chain: AEKELEAVIKELAEVDPEIAKLVEEAIEIAKELGVPLEVLLRFAKAILELAKVDKEKALELVKELLEELKKAKEEGNRDEAIALLYDAESEALLAVEELE
B12: GBRAP_52_6343 (protein)
chain: SEEEIREVAEKIAEAVKAGDLEKAVELTREAAKRFSEEEVEEMLRITAELMVEALPDREDLAWEAAERLAKVVEEELGNEELADLYLAYLARLLVERRRA
B13: GBRAP_184_5095 (protein)
chain: KTLERHIEAETLEEAEAQIDAAIDEAAAAGANLTLLLSLKGVSEEEIVELVERLGRRAAEAGVPRVTLGIDQLLSEEAADRLIEVADRHGINLVLALPEE
B14: GBRAP_160_4697 (protein)
chain: SATAAKLKAFVDAEFAETKEMIKGETTEQRATIVAGTGGEVLMEFVENPEAPDELEDAVRAIFDATVATILANPNLTDAQLKALIDDARAAVKAAIDKHL
B15: GBRAP_128_3425 (protein)
chain: SSEEAVERARELLEAMLTAGPEEAKRLAEELAELFLSADLETAEKIAEVVREMIPQFTAEQLLILADAFRAALPKLTPEKANIAAGVIVDLLNAAEELEE
B16: GBRAP_184_5310 (protein)
chain: AVRHVVIEAETGEEAVAQLRAAAAAARAAGARLDVTLLLSNVSVEEFEAVMALLAEMRAAGILRDALVDVLDEKSEEEVDALVALADEAGVRLVVALPDE
B17: GBRAP_11_2663 (protein)
chain: KKEVLEEALKLAREAAETAEKLIEEGVDNEELIAKLEELIKKLKELAEKYLSKAIQSDVEVIVELFKEFKEDKENQLEYAQQLLAALRVLAGNLELELDE
B18: GBRAP_184_5250 (protein)
chain: EVAFLELDVNSPADIPAAVARFEAFARAHKGTVYVLLNAKGLTTEEKVELIERLGRAAREAGVEELVIDITDELTEEEADKLIAAADALGIRLVLALKEE
B19: GBRAP_184_5065 (protein)
chain: ETFEATLEVEDLEEAREKMEELAEEVKDHKGDLVVHLVLPEFNREIVELVLERLREIREAGYARRITVGLDADLTEEEVDFALELADEAGVNLTVALPEE

The binders below were run against GABARAP, O95166 (assay: median log2 fold change of GCK-ALFA target abundance (FLAG IP / Myc IP barcode read proportion) (log2 ratio); each designed protein is fused to an ALFA-tag nanobody in HEK293 cells to bring the named protein to FLAG-tagged glucokinase (GCK); Myc marks an untargeted standard; higher = target protein stabilised (more abundant)). Conditions: target protein: 3xFLAG-MCP-GCK-ALFA reporter; HEK293 landing pad (RPLP).
Sequence of GABARAP, O95166 (O95166 whole entry, the tested form may be a part): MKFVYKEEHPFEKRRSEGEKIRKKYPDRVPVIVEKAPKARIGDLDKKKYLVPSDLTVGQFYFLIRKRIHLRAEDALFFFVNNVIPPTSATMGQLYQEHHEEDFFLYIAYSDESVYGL
How it was run: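 Binders fused to an ALFA nanobody were recombined as a library into HEK293 landing-pad cells, which were induced with 2 μg mL^−1 doxycycline and then transfected to express a FLAG-tagged target and a Myc-tagged standard. After 48 h, circular RNA barcodes recovered by anti-FLAG and anti-Myc immunoprecipitation of lysates were reverse transcribed, amplified and sequenced. Each binder's target abundance is the median log2 ratio of FLAG to Myc barcode read proportions, from barcodes present at ≥10^−7 in both replicates, binders carrying ≥3 barcodes per replicate, a 10^−6 pseudocount and pooled replicates.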

Binder	median log2 fold change
B1	-0.141
B2	0.096
B3	0.135
B4	0.152
B5	-0.0705
B6	0.0564
B7	-0.267
B8	0.0885
B9	-0.631
B10	0.185
B11	0.0224
B12	0.039
B13	0.0102
B14	0.000167
B15	0.228
B16	0.0372
B17	0.236
B18	-0.0237
B19	0.0302
